The source of these data is the supplement of paper PMC3724861.

The list shows a part of the results.

The test system of the assay is T1, Caupolican (Caup) homeodomain DNA-binding domain.
T1 sequence: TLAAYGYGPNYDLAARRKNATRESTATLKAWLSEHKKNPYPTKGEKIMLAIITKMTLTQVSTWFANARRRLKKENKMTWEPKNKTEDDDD
As to the kind of experiment: PBM E-score (8-mer, recovered from the published 9-mer minima) (E-score (dimensionless, -0.5 to 0.5)); Drosophila protein; higher = stronger relative binding preference, active = 0.31 or more. The method, boiled down:
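Caup's homeodomain DNA-binding domain (residues 214-303) was produced by in vitro transcription and translation and applied at 100 nM to custom-designed protein binding microarrays. Each value is an enrichment score giving relative binding preference for a short DNA word; higher means stronger. Published 9-mer scores were the minimum of their two constituent 8-mer scores, and the 8-mer values were recovered from those minima. A cutoff of 0.31 marks candidate binding sequences.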
As for GAATCACC, the “PBM E-score” value is no less than 0.124.

As to GTATCGCA, the “PBM E-score” value was inactive: 0.0619.

Take CCCGCACG: the “PBM E-score” value was inactive: -0.152.

As for ACCTAGGT, the “PBM E-score” value is inactive: -0.0494.

On to AGTGAAAA, for which the “PBM E-score” value was inactive: 0.0379.

Take CCGCTGAC: the “PBM E-score” value is inactive: -0.133.

Consider CAGATATC, for which the “PBM E-score” value was inactive: 0.0834.

On to ACAAAGTC, for which the “PBM E-score” value is inactive: 0.0541.

Consider ACGGTGCC, for which the “PBM E-score” value was inactive: -0.168.

Consider AGTGTCAA, for which the “PBM E-score” value is inactive: 0.116.

With ACTAGACT, the “PBM E-score” value was inactive: 0.036.

As for AGCGATGA, the “PBM E-score” value is inactive: -0.0597.

Regarding ATGAGAAA, the “PBM E-score” value was inactive: 0.068.

TAAGACGA: the “PBM E-score” value is inactive: 0.0732.

For CAGGTTTA, the “PBM E-score” value is inactive: 0.0953.

Turning to CCGCCTGA, the “PBM E-score” value was inactive: -0.216.

On to ATGAGCAT, for which the “PBM E-score” value was no less than 0.153.

On to ACTGGTCT, for which the “PBM E-score” value is inactive: -0.0659.

Consider CGCAGTTA, for which the “PBM E-score” value was inactive: -0.0217.

Take AATAAGCC: the “PBM E-score” value was inactive: -0.0862.

For GAATAACC, the “PBM E-score” value was inactive: 0.0271.

On to ATGCTGAG, for which the “PBM E-score” value was inactive: -0.124.

As for CAACGCAG, the “PBM E-score” value is inactive: -0.0742.

On to AACCGACC, for which the “PBM E-score” value was inactive: -0.0352.

Take ACACACGG: the “PBM E-score” value was inactive: 0.128.

As for GCCTGAAA, the “PBM E-score” value was inactive: -0.114.

With GCGCACCC, the “PBM E-score” value was inactive: -0.133.

As to CTAATGCA, the “PBM E-score” value was inactive: 0.0153.

On to ATAAACCG, for which the “PBM E-score” value was inactive: 0.109.

Take CACGTCTC: the “PBM E-score” value is inactive: -0.0159.

For the sequence GGGCGCCC, the “PBM E-score” value was inactive: -0.325.

Consider CGTCGGAG, for which the “PBM E-score” value is inactive: -0.113.

Consider CATGCTAA, for which the “PBM E-score” value was inactive: 0.201.

On to GACGCTCC, for which the “PBM E-score” value is inactive: -0.204.

Regarding GTAGCCGA, the “PBM E-score” value is inactive: 0.0173.

With CACCTGCA, the “PBM E-score” value was inactive: -0.0858.

For ACAGACGC, the “PBM E-score” value was inactive: 0.0138.

As to ACCCTTTC, the “PBM E-score” value was inactive: 0.0191.

For GCCTCGTA, the “PBM E-score” value was inactive: 0.00536.

On to GAACGTGA, for which the “PBM E-score” value is inactive: -0.00878.

In the case of ATCTATCC, the “PBM E-score” value is inactive: 0.0324.

With AGGTATCA, the “PBM E-score” value was inactive: 0.141.

Take CATATCAC: the “PBM E-score” value is inactive: 0.208.

Consider ATTGTAGC, for which the “PBM E-score” value is inactive: 0.144.

For GGCCATAC, the “PBM E-score” value is inactive: -0.0567.

ACGAGTCC: the “PBM E-score” value is inactive: -0.0179.

Take GGACCAAA: the “PBM E-score” value was inactive: -0.0836.

Consider ACGCTTAC, for which the “PBM E-score” value was inactive: -0.0441.

With CATCGTAG, the “PBM E-score” value is inactive: -0.0768.

Take CCTAGTTA: the “PBM E-score” value was inactive: 0.0742.

CCCACTCA: the “PBM E-score” value is inactive: -0.0949.

As for TATGAGGA, the “PBM E-score” value was inactive: 0.0611.

On to AGTTCGGC, for which the “PBM E-score” value was inactive: -0.0963.

As for TACATTGA, the “PBM E-score” value is inactive: 0.297.

Regarding AGGAACAA, the “PBM E-score” value is inactive: 0.165.

As to ACTAAGAA, the “PBM E-score” value is inactive: 0.0973.

Regarding ACGACACG, the “PBM E-score” value is no less than 0.301.

For the sequence AGACTTAG, the “PBM E-score” value is inactive: -0.0606.

On to GTAACCCA, for which the “PBM E-score” value was inactive: 0.126.

Turning to TATCCCAA, the “PBM E-score” value is inactive: 0.0112.

Consider ACGTTACG, for which the “PBM E-score” value is inactive: 0.0614.

On to GTCACCAC, for which the “PBM E-score” value is inactive: -0.0334.

With ACCAACGA, the “PBM E-score” value is inactive: 0.0368.

AGCTTTCG: the “PBM E-score” value is inactive: -0.116.

With CAAGGTCC, the “PBM E-score” value is inactive: -0.0224.

As to TCCCGAGA, the “PBM E-score” value was inactive: -0.0982.

With GCACAAGA, the “PBM E-score” value was inactive: 0.0557.

As for ATTCTCGG, the “PBM E-score” value was inactive: 0.0392.

Turning to CAAGCCTA, the “PBM E-score” value was inactive: 0.0113.

CTTTGGAC: the “PBM E-score” value was inactive: 0.0347.

In the case of CCAGGGTA, the “PBM E-score” value was inactive: -0.146.

For the sequence CACTAGCG, the “PBM E-score” value was inactive: -0.129.

For CCGTACTA, the “PBM E-score” value is inactive: 0.0438.

In the case of AAACCCCG, the “PBM E-score” value was no less than -0.0734.

As to GATTACTA, the “PBM E-score” value is inactive: 0.184.

Regarding GCGGGCTA, the “PBM E-score” value is no less than -0.128.

Regarding CTGTCATC, the “PBM E-score” value is inactive: 0.134.

As for CATTAAGC, the “PBM E-score” value was inactive: 0.00554.

For TCGACGCA, the “PBM E-score” value is inactive: -0.107.

Consider ACCTTTAA, for which the “PBM E-score” value was inactive: -0.0379.

Regarding AAACTCCG, the “PBM E-score” value is inactive: -0.0817.

For the sequence GTATATAC, the “PBM E-score” value is inactive: 0.0688.

Consider GCCTCGCC, for which the “PBM E-score” value is inactive: -0.193.

For the sequence ATGTCGAC, the “PBM E-score” value was active: 0.326.

AAATGAGG: the “PBM E-score” value was inactive: -0.113.

In the case of AGGCTACT, the “PBM E-score” value is inactive: -0.0174.

As to ACGGTCGC, the “PBM E-score” value was inactive: -0.0621.

Take AGCGCACC: the “PBM E-score” value was inactive: -0.0646.

Regarding GTCGACCA, the “PBM E-score” value is inactive: -0.0408.

GATTCACC: the “PBM E-score” value was inactive: -0.101.

AGGGTGTA: the “PBM E-score” value was inactive: 0.193.

Consider AAGATCGA, for which the “PBM E-score” value is inactive: 0.0302.

As to CTCGTCCA, the “PBM E-score” value is inactive: -0.0549.

In the case of AATGTGAT, the “PBM E-score” value was inactive: 0.24.

For the sequence GTCATGAA, the “PBM E-score” value was inactive: 0.0353.

In the case of ATGACCAA, the “PBM E-score” value is inactive: 0.0741.

Consider CTCCAGCA, for which the “PBM E-score” value is inactive: -0.0777.

For the sequence CTACTGGC, the “PBM E-score” value is inactive: -0.161.

Consider CTGGCCCC, for which the “PBM E-score” value was inactive: -0.225.

GGTCCACA: the “PBM E-score” value is inactive: -0.00834.

Consider AACACTCG, for which the “PBM E-score” value is inactive: 0.0192.

For the sequence CTCTGAGC, the “PBM E-score” value was inactive: -0.107.

Regarding AAAGGACC, the “PBM E-score” value is inactive: -0.146.

As to AATAGCGC, the “PBM E-score” value is inactive: -0.0439.

As for ACAAGGTA, the “PBM E-score” value is active: 0.335.

GGATAGCC: the “PBM E-score” value is inactive: -0.166.

Consider GCCCCTAC, for which the “PBM E-score” value was inactive: -0.167.

Regarding AGTTAAAA, the “PBM E-score” value is inactive: 0.12.

Take GTGTAACA: the “PBM E-score” value is active: 0.397.

For the sequence TCGTAAGA, the “PBM E-score” value was inactive: 0.0323.

For ATTGCTAC, the “PBM E-score” value is inactive: 0.0957.

Take AAGAGAAT: the “PBM E-score” value is inactive: -0.0389.
